Source: the CheMixHub ionic liquid set
Further values from the same series stand in other lists.

Assay: xn = mol fraction of the nth substance listed
Settings: 101 kPa

CCCCCC[n+]1ccn(C)c1.F[B-](F)(F)F + CC(C)O + CCCO
viscosity [mPa·s]
Settings | 313.15 K | 323.15 K | 333.15 K
x2 = 0.0547, x3 = 0.092 | 58.44 | 39.18 | 27.53
x2 = 0.0978, x3 = 0.4041 | – | 11.32 | 8.66
x2 = 0.1003, x3 = 0.7991 | – | 1.64 | 1.19
x2 = 0.1006, x3 = 0.6013 | – | 5.04 | 3.87
x2 = 0.1012, x3 = 0.4996 | – | 7.56 | 5.83
x2 = 0.1014, x3 = 0.7009 | – | 3.08 | 2.3
x2 = 0.1116, x3 = 0.2875 | – | 16.41 | 12.5
x2 = 0.1293, x3 = 0.1504 | 35.73 | 25.01 | 18.36
x2 = 0.1973, x3 = 0.1121 | – | 22.81 | 16.82
x2 = 0.1985, x3 = 0.4006 | – | 7.66 | 5.89
x2 = 0.1992, x3 = 0.3012 | – | 11.38 | 8.77
x2 = 0.2003, x3 = 0.2005 | – | 16.3 | 12.28
x2 = 0.2003, x3 = 0.4992 | – | 5.08 | 3.89
x2 = 0.2012, x3 = 0.6984 | – | 1.64 | 1.15
x2 = 0.2977, x3 = 0.1042 | – | 16.39 | 12.37
x2 = 0.2999, x3 = 0.4989 | – | 3.2 | 2.36
x2 = 0.3037, x3 = 0.4006 | – | 5.02 | 3.84
x2 = 0.3046, x3 = 0.5961 | – | 1.65 | 1.11
x2 = 0.3058, x3 = 0.3005 | – | 7.61 | 5.87
x2 = 0.3977, x3 = 0.2999 | – | 5.19 | 3.98
x2 = 0.3985, x3 = 0.104 | – | 11.2 | 8.61
x2 = 0.3987, x3 = 0.3005 | – | 5.14 | 3.93
x2 = 0.3989, x3 = 0.3998 | – | 3.19 | 2.35
x2 = 0.3989, x3 = 0.5015 | – | 1.64 | 1.1
x2 = 0.4002, x3 = 0.1968 | – | 7.81 | 6.01
x2 = 0.4992, x3 = 0.4006 | – | 1.67 | 1.1
x2 = 0.5004, x3 = 0.0998 | – | 7.76 | 6
x2 = 0.5013, x3 = 0.3019 | – | 3.11 | 2.29
x2 = 0.5734, x3 = 0.2335 | – | 3.06 | 2.24
x2 = 0.6, x3 = 0.0992 | – | 5.15 | 3.94
x2 = 0.6001, x3 = 0.3004 | – | 1.65 | 1.1
x2 = 0.6942, x3 = 0.1049 | – | 3.11 | 2.32
x2 = 0.698, x3 = 0.2007 | – | 1.67 | 1.1
x2 = 0.7991, x3 = 0.101 | – | 1.62 | 1.06
